The results in this text go back to article PMC11513070.

Experiment [1] has as its target T1, SPP-myc (murine, wild type) (mouse) (UniProt Q9D8V0).
T1 sequence (chain, N-glycosylated at N10 and N20): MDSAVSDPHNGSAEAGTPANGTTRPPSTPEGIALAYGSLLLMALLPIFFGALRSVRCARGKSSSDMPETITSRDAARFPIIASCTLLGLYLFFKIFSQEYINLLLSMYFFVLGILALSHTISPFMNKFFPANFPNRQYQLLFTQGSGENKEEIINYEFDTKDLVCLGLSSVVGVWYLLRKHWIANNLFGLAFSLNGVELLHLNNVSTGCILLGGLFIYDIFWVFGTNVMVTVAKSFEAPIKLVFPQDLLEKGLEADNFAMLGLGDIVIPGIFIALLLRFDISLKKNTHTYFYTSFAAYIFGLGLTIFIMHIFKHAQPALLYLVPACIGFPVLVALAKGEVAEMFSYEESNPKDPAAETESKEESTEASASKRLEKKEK
The experiment in a line: co-IP; myc-tagged protease variant precipitated with anti-SPPL2c (C-terminus or 3B epitope) or anti-SPP sepharose beads from lysates (0.5% DDM) of transiently transfected HEK293T cells, overnight at 4 °C; western blot for endogenous calnexin. On the technique in general: Immunoblotting shows a protein as a band on a membrane.

Experiment [2] addresses T2, SPPL2c N106A-myc (murine isoform A, glycosylation-deficient) (mouse) (UniProt A2A6C4).
T2 sequence: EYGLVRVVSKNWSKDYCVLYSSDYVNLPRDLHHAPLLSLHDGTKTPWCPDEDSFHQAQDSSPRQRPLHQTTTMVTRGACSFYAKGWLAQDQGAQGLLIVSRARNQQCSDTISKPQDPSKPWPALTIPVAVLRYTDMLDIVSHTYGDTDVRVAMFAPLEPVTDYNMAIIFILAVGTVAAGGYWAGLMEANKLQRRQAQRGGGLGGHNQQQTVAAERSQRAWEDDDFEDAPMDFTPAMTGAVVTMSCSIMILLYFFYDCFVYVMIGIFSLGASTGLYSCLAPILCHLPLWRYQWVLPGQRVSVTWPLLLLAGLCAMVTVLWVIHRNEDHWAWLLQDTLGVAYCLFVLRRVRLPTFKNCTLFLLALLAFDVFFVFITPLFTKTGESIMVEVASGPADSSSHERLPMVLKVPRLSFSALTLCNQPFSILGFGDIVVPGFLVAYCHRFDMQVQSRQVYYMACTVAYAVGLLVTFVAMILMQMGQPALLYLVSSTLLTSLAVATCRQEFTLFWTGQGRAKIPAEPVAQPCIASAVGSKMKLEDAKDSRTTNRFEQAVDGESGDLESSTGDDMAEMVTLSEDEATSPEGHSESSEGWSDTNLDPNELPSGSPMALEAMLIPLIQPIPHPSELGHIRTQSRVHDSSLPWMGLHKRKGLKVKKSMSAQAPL
The experiment is described as above.

These are yes or no findings as the source states them, for the method shown. Binding seen in cells or lysates may run through a third protein. Some entries that bind do so weakly or less than the wild type. Sequences can lack the tags named with a protein.

B1: calnexin, endogenous in HEK293T cells (protein, UniProt P27824 21-592)
chain: HDGHDDDVIDIEDDLDDVIEEVEDSKPDTTAPPSSPKVTYKAPVPTGEVYFADSFDRGTLSGWILSKAKKDDTDDEIAKYDGKWEVEEMKESKLPGDKGLVLMSRAKHHAISAKLNKPFLFDTKPLIVQYEVNFQNGIECGGAYVKLLSKTPELNLDQFHDKTPYTIMFGPDKCGEDYKLHFIFRHKNPKTGIYEEKHAKRPDADLKTYFTDKKTHLYTLILNPDNSFEILVDQSVVNSGNLLNDMTPPVNPSREIEDPEDRKPEDWDERPKIPDPEAVKPDDWDEDAPAKIPDEEATKPEGWLDDEPEYVPDPDAEKPEDWDEDMDGEWEAPQIANPRCESAPGCGVWQRPVIDNPNYKGKWKPPMIDNPSYQGIWKPRKIPNPDFFEDLEPFRMTPFSAIGLELWSMTSDIFFDNFIICADRRIVDDWANDGWGLKKAADGAAEPGVVGQMIEAAEERPWLWVVYILTVALPVFLVILFCCSGKKQTSGMEYKKTDAPQPDVKEEEEEKEEEKDKGDEEEEGEEKLEEKQKSDAEEDGGTVSQEEEDRKPKAEEDEILNRSPRNRKPRRE
Turning to B1, the binding entry in experiment [1] is “binds”; in experiment [2], “no binding”.
